The list shows a part of the results. At the low end of the ranking the order means little.
target: T1, GST-Rok (full length) (UniProt O34857); test: protein binding microarray; details: Rok is a gene silencer of Bacillus subtilis; high values mean tight binding; most listed sequences are background and not binding sites; double strand, one strand shown;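 further: rank score from −0.5 (least bound) to 0.5 (best bound)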
T1 sequence: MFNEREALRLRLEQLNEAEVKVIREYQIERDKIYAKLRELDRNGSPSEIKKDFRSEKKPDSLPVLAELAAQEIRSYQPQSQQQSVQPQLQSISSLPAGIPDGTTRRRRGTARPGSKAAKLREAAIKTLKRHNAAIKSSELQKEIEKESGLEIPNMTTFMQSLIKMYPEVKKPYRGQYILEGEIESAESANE

Sequence | binding signal
AAATCCCT | -0.15 E-score
AAGAAACA | 0.223 E-score
CGCTCACA | -0.126 E-score
AATCAACC | -0.107 E-score
ACCCTGAT | -0.101 E-score
CTGTATTC | -0.166 E-score
GTTCTAAA | 0.0339 E-score
GCACTAGA | 0.0932 E-score
ATGCAGAA | 0.23 E-score
CCACGACA | -0.123 E-score
TCACCGGA | -0.108 E-score
GACCAGTA | 0.0441 E-score
ACCAAATG | 0.056 E-score
AGAATCGG | 0.137 E-score
CTAGGACA | 0.0648 E-score
ACAGAAGT | 0.256 E-score
AGGGATAT | 0.0895 E-score
CCGAACTA | 0.282 E-score
TAAATGGA | 0.119 E-score
GCATGCAA | -0.0106 E-score
ACGGATAC | -0.0801 E-score
AGGCCGGA | -0.156 E-score
GGCGTAAA | 0.0698 E-score
ATACAGCC | -0.206 E-score
GAAGTAAC | 0.0804 E-score

Sequence | binding signal
CATTAAAC | -0.0768 E-score
CTGGCCAA | -0.218 E-score
ACCTACCG | 0.169 E-score
ATTAGCTG | 0.209 E-score
AAAACGAT | 0.0449 E-score
CGTCTCGA | -0.22 E-score
AAGTTCTC | -0.0181 E-score
TAATTCGA | 0.133 E-score
AGCGAGTG | -0.0883 E-score
GAGTAAAA | 0.218 E-score
CGCTAGGC | -0.229 E-score
GACTCTGC | -0.222 E-score
GCCAGTAA | -0.224 E-score
GTTAGTAA | 0.272 E-score
ATCCACGA | 0.114 E-score
CCAAGTGA | -0.0973 E-score
CAGTGATA | 0.201 E-score
TCACCCGA | -0.192 E-score
CTCGAAAA | 0.0714 E-score
ACAATAGG | 0.215 E-score
ATTTTGAG | 0.155 E-score
GAAAACCC | -0.322 E-score
ACCTAACC | -0.0826 E-score
CTTTTGTA | 0.222 E-score
CAGAATAC | 0.04 E-score

Sequence | binding signal
CAAAGTGG | -0.0503 E-score
CCCGACCC | -0.344 E-score
CTGCTGGC | -0.24 E-score
GAGCGCAA | -0.142 E-score
GTTATAGA | 0.11 E-score
CTAAATCA | 0.0987 E-score
GACAGCAC | -0.051 E-score
CTGGGTTC | -0.0092 E-score
GAAGCCAC | -0.149 E-score
AAACGGTT | 0.0553 E-score
GTATGCGA | -0.0103 E-score
CAGTAGCC | 0.0096 E-score
CTACGACA | 0.137 E-score
CCGACAAA | -0.149 E-score
AGGGTCAG | -0.126 E-score
CAACGCTC | -0.322 E-score
GGGGAAAC | -0.0869 E-score
GCGCCCAA | -0.217 E-score
CCTGGTTC | -0.322 E-score
ACCACGTC | -0.22 E-score
CGTCAGGC | -0.107 E-score
ACTTCTGG | -0.00484 E-score
AGGTACAG | 0.118 E-score
CATCAGCC | -0.239 E-score
AGACCTAC | -0.174 E-score

Sequence | binding signal
CCTCTAGC | -0.192 E-score
CTGAGACC | -0.26 E-score
CTAGACGA | 0.00484 E-score
CCGCACGG | -0.234 E-score
GACATTAC | 0.194 E-score
CATGTCCC | -0.34 E-score
CGGCCTAA | -0.179 E-score
CAACGAAG | 0.0144 E-score
ACCACTGA | 0.093 E-score
GAAACGAC | -0.132 E-score
GGTATTCA | -0.0162 E-score
ATGCCCCG | -0.0941 E-score
CCTAGAGA | -0.145 E-score
GCCATGCA | -0.3 E-score
ACTCCAGT | 0.0434 E-score
AATGGGTG | 0.102 E-score
CACTTACA | 0.102 E-score
AAGATGCG | 0.0484 E-score
AATTTTTG | 0.102 E-score
GTTCTAGA | 0.163 E-score
CTGACAAC | 0.0564 E-score
CAGGTCGA | -0.0198 E-score
CCAATTGG | -0.0925 E-score
CGCCACCA | -0.214 E-score
GATTACCA | 0.138 E-score

Sequence | binding signal
GCGTAATA | 0.27 E-score
CTGCCGAA | -0.156 E-score
CTTACCTA | 0.115 E-score
GGTCAACA | -0.0732 E-score
CTTGTCTA | -0.00192 E-score
CTCCAAAC | -0.0323 E-score
CTCTACCA | 0.109 E-score
GATCCAGA | 0.0609 E-score
ACATTAGT | 0.305 E-score
CCCATTTC | 0.00645 E-score
GAGGCTAC | -0.278 E-score
GTGGACAC | -0.27 E-score
AGCCATGA | -0.0278 E-score
GAAACCGA | -0.119 E-score
TATATTGA | 0.278 E-score
CGGGGAGC | -0.398 E-score
AGGCCCAC | -0.421 E-score
ACTGCACG | 0.0331 E-score
TACTTATA | 0.321 E-score
ACTCTAAC | 0.13 E-score
AGTCTGAG | 0.0409 E-score
GACAGTAA | 0.135 E-score
AGCCGTTA | 0.171 E-score
AGTAACAA | 0.117 E-score
CGGCCTGA | -0.2 E-score

Sequence | binding signal
TAACATTA | 0.321 E-score
CAAGAGGG | -0.294 E-score
ACTGAATA | 0.168 E-score
ACAAGCAA | 0.046 E-score
CATGATGA | 0.0688 E-score
GCGAGCTA | 0.182 E-score
AAGGAAAC | -0.199 E-score
ACTAGATC | 0.327 E-score
TCTGGCAA | -0.15 E-score
ACATCGAG | 0.125 E-score
ATAGTTAA | 0.329 E-score
ACCTGCGG | -0.172 E-score
AGTATCGG | 0.0403 E-score
GACCGATA | 0.00594 E-score
GAGTGGAA | -0.253 E-score
AAGTTAGG | 0.125 E-score
TAGATGGA | -0.0691 E-score
TAGTGCAA | 0.225 E-score
CACGGAGC | -0.103 E-score
CAGCCCTC | -0.241 E-score
CTAGGAAA | 0.0106 E-score
CAGCTATC | 0.00359 E-score
CCTGTATC | 0.00402 E-score
CGTAAGAA | 0.0442 E-score
AGTCGATG | 0.0219 E-score

Sequence | binding signal
TGTGTCAA | -0.102 E-score
TGTAGACA | 0.159 E-score
GTGCAGTA | 0.317 E-score
CCGTTGAA | 0.00615 E-score
AGCTAAAA | 0.15 E-score
CGAATGCA | -0.00835 E-score
TGGGTGAA | 0.132 E-score
AATACGTG | 0.202 E-score
CAGCCTGG | -0.226 E-score
GCGATAAA | 0.182 E-score
ACATCCTA | 0.222 E-score
TAATGATA | 0.225 E-score
AACACAGT | -0.00279 E-score
CCGCCAAG | -0.31 E-score
ACCATACG | 0.0631 E-score
ACGCTGTC | -0.0854 E-score
CGTCTCCA | -0.107 E-score
CTCAGTTA | 0.0853 E-score
CGCGGATC | 0.00436 E-score
CCATTGGC | -0.199 E-score
AACCCATG | 0.0717 E-score
GCCGTTTA | -0.159 E-score
